# Results reported in PubChem BioAssay AID588855 (National Center for Advancing Translational Sciences (NCATS), 2011).
# The campaign covered roughly 410,000 compounds. About 5,000 (1.2%) were called active. Inconclusive means that the source gave no clear call. Such entries were picked first, then a sample of the others. Calls come from the whole dose curve; as a rule, active = well fitted inhibition curve with a large enough effect; inconclusive = small, poorly fitted or top-dose-only effect; inactive = no such curve, though single readings can be large or run the other way. Where the call is inconclusive, the potency comes from a doubtful curve fit.
# Experiment: qHTS for Inhibitors of TGF-b; note: nearly all actives have a fitted effect of over 65% in size
# Conditions: HepG2 CAGA-GFP TGF-b/SMAD3 reporter, GFP fluorescence, 18 h, TGF-beta stimulated, 500 pg/mL final; series mostly up to 46.1 µM; activity, negative = inhibition: at the top concentration
# How it was run: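 Inhibition was scored as loss of TGF-beta-induced (500 pg/mL final, 18 hours, 37 degrees C) GFP in HEPG2 cells carrying a CAGA-GFP reporter, in DMEM with 1% FBS. Well GFP was summed per cell; Activity was normalised to unstimulated and stimulated DMSO wells, then concentration-response fitting.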
# % is set by controls: 0 for no effect and ±100 for the full control effect; potency is the fitted concentration of half-maximal effect; tags give direction and shape of the fitted curve.
Structure (SMILES),Potency,"activity, negative = inhibition"
S=C1SCN(Cc2ccccc2)CN1Cc1ccccc1,"inconclusive: 15.8 µM [inhibitor, single point]",–
Cc1[nH]c2ccc(C(=O)OC(C)C(=O)N(C)c3ccccc3)cc2c1C (stereo not drawn),"inconclusive: 28.2 µM [inhibitor, single point]",–
CC(=O)c1cn(C)c(=O)n(C)c1=O,–,inactive: -5.19%
Cc1cccc(NC(=O)c2ccc(-n3cccn3)c([N+](=O)[O-])c2)c1,"inconclusive: 3.98 µM [inhibitor, single point]",–
COc1ccc(C(=O)N2c3ccccc3C(C)(c3ccc(Cl)cc3)CC2(C)C)cc1 (stereo not drawn),"inconclusive: 12.6 µM [inhibitor, partial curve, poor fit]",–
COc1ccc(CCNC(=O)c2c(O)nc3c(C)cccn3c2=O)cc1,–,inactive: -3.02%
Oc1c(N=Nc2nn[nH]n2)ccc2ccccc12,active: 4.47 µM,–
Fc1ccc(CNc2nc(-c3cccnc3)nc3ccccc23)cc1,"inconclusive: 35.5 µM [inhibitor, single point]",–
CCOc1ccc(N2C(=O)CC(N3CCOCC3)C2=O)cc1 (stereo not drawn),"inconclusive: 3.98 µM [inhibitor, single point]",–
Cc1ccc(-c2onc(C)c2C)cc1S(=O)(=O)N1c2ccccc2CC1C (stereo not drawn),"inconclusive: 14.1 µM [inhibitor, partial curve, poor fit]",–
O=C(NS(=O)(=O)NC1CCCCC1)C1=C(N2CCCC2)COC1=O,"inconclusive: 6.31 µM [inhibitor, single point]",–
C[C@H](O)C#Cc1cnc2c(c1)C(=O)N([C@H](C)CO)C[C@@H](C)[C@@H](CN(C)Cc1ccc(-c3ccccc3)cc1)O2,"inconclusive: 22.4 µM [inhibitor, partial curve, poor fit]",–
CCn1c(SCC(=O)Nc2ccccc2Br)nnc1-c1cnccn1,–,inactive: 0.904%
O=S1(=O)c2ccccc2N(Cc2cccc(C(F)(F)F)c2)c2ccccc21,"inconclusive: 22.4 µM [inhibitor, single point]",–
Cc1cnc(CN(C)C(=O)CC2C(=O)NCCN2Cc2cccc(F)c2F)[nH]1 (stereo not drawn),"inconclusive: 35.5 µM [inhibitor, single point]",–
Cc1cccc(NC(=O)Cn2c(=O)n(CCCS(=O)(=O)C3CCCCC3)c(=O)c3ccccc32)c1,"inconclusive: 15.8 µM [inhibitor, single point]",–
COc1cccc(-c2cnc3cccnn23)c1,–,inactive: 0.218%
CCOC(=O)c1ccc(-n2c(C)nc3c(cnn3-c3ccc(Cl)cc3)c2=O)cc1,"inconclusive: 35.5 µM [inhibitor, single point]",–
COc1ccc(/C=C/c2cc(-c3ccc(C)cc3)o[n+]2C)cc1,active: 10 µM,–
O=C(c1cccc(C(F)(F)F)c1)C1CCCN(Cc2cccn2-c2ncccn2)C1 (stereo not drawn),"inconclusive: 35.5 µM [inhibitor, single point]",–
Cc1ccccc1Nc1c(-c2ccco2)nc2c(C)cccn12,–,inactive: 0.59%
Cc1ccccc1/C=C/c1cc[n+](C)cc1,"inconclusive: 5.01 µM [inhibitor, partial curve]",–

Structure (SMILES),Potency,"activity, negative = inhibition"
O=C(Nc1cc(S(=O)(=O)N2CCOCC2)ccc1N1CCCCC1)c1ccc(Cl)cc1,–,inactive: -21.2%
COc1ccc(CN(C)C(=O)c2ccc(OCC(=O)Nc3cccc(C(F)(F)F)c3)c(OC)c2)c(OC)c1,"inconclusive: 35.5 µM [inhibitor, single point]",–
Cc1n[nH]c(C)c1S(=O)(=O)N(CC(=O)Nc1ccc(C(F)(F)F)cc1)c1ccc(C(C)C)cc1,"inconclusive: 2.24 µM [inhibitor, full curve, poor fit]",–
CCOC(=O)c1sc2ncnc(NCC(c3cccs3)N(C)C)c2c1C (stereo not drawn),–,inactive: -3.26%
Cc1cc(-c2csc(NC(=O)C3=COCCO3)n2)c(C)n1C,"inconclusive: 25.1 µM [inhibitor, single point]",–
CC(C)Oc1ccc(F)cc1-c1cc(C(=O)NCc2ccc(F)cc2)[nH]n1,"inconclusive: 20 µM [inhibitor, single point]",–
Cc1cc([N+](=O)[O-])ccc1NC(=O)CN1C2CCC1CC(NC(=O)NC13CC4CC(CC(C4)C1)C3)C2 (stereo not drawn),–,inactive: -20.7%
Cc1ccc(C(=O)NCCNC(=O)CN2CCOCC2)cc1,"inconclusive: 11.2 µM [inhibitor, single point]",–
CC(=O)Nc1ccc(S(=O)(=O)c2ccnc3cc(Cl)ccc23)cc1,active: 10 µM,–
CCCCCc1ccc(OCCOCCn2c[n+](C)c3ccccc32)c(CCCCC)c1,"inconclusive: 10 µM [inhibitor, partial curve, poor fit]",–
O=C(C=Cc1ccccc1)c1c[nH]c2ccccc2c1=O,"inconclusive: 35.5 µM [inhibitor, single point]",–
O=C(CC(=O)c1cc(Cl)ccc1O)c1ccccc1,"inconclusive: 15.8 µM [inhibitor, single point]",–
CCCCC(=O)NC(c1ccccc1Cl)c1c(O)ccc2ccccc12 (stereo not drawn),"inconclusive: 22.4 µM [inhibitor, single point]",–
COc1cc(NC(=O)c2c(F)c(F)c(F)c(F)c2F)c(OC)cc1Cl,–,inactive: -37.8%
COc1cc(C(=O)Nc2nc3ccc(S(C)(=O)=O)cc3s2)cc(OC)c1C,"inconclusive: 35.5 µM [inhibitor, single point]",–
CC(OC(=O)c1cc(S(=O)(=O)Nc2ccc(F)cc2)ccc1Cl)C(=O)Nc1ccc2c(c1)OCCO2 (stereo not drawn),"inconclusive: 22.4 µM [inhibitor, single point]",–
O=C(NCc1ccc(OC(F)(F)F)cc1)C1CC(c2ccccc2[N+](=O)[O-])=NO1 (stereo not drawn),"inconclusive: 7.08 µM [inhibitor, partial curve, poor fit]",–
O=C(Nc1ccc(N2CCN(C(=O)c3ccccc3)CC2)cc1)c1ccc([N+](=O)[O-])o1,active: 5.62 µM,–
COc1ccc(CN2CCCN(S(=O)(=O)c3ccc(Br)cc3)CC2)cc1,"inconclusive: 22.4 µM [inhibitor, single point]",–
COC(=O)C1CCCCN1C(=O)CCc1nnc(CCc2c[nH]c3ccccc23)o1 (stereo not drawn),–,inactive: 4.06%
C[C@H](NC(=O)Nc1cccc(Br)c1)C(=O)O,–,inactive: -3.04%
